In PubChem BioAssay (Tox21):
Inconclusive results, whose numbers are uncertain, are shown with a selection of clear calls. Where a call stands in place of a potency, no number is given. For some of these results: Where the call is inconclusive, the potency comes from a doubtful curve fit. Active and inactive are the calls of the source. Unless noted, calls follow the shape of the dose curve; as a rule, active = well fitted cell-killing curve with a large enough effect in the repeat runs; inconclusive = weak or mixed curves, or effect the other way; inactive = no such curve, though single readings can be large or run the other way.

Target: Bile acid receptor (Homo sapiens) (UniProt Q96RI1)
Chain of UniProt Q96RI1 (Q96RI1 whole entry, looked up): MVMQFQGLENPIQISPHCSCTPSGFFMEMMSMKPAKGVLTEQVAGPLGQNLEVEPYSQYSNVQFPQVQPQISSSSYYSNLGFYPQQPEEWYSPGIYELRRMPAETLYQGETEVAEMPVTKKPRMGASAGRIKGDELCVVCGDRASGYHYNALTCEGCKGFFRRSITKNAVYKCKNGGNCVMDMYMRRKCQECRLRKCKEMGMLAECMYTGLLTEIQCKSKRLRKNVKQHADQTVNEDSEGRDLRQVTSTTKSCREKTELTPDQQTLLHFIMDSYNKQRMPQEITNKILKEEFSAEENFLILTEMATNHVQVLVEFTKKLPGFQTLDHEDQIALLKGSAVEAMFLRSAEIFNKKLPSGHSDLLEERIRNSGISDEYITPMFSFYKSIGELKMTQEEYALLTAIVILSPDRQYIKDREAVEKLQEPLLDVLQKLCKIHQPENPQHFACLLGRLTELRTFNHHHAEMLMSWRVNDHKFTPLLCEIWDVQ
Assay: qHTS assay to identify small molecule antagonists of the farnesoid-X-receptor (FXR) signaling pathway (AID 743217; active = well fitted inhibition curve with a large enough effect in the signal ratio in the repeat runs, not every such curve was filed as active; inconclusive = weak or mixed curves, or effect the other way; inactive = no such curve, though single readings can be large or run the other way; the % refers to the signal ratio)
Conditions: HEK293T FXR-UAS-bla, beta-lactamase ratio, CDCA-stimulated, 16 h; activity change, negative = inhibition: at 62.6 µM (top of the series) unless noted
How it was run: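 HEK 293T FXR-UAS-bla, 5000 cells/well; compound + CDCA 50 uM final; 16 h, 37 °C; B/G FRET substrate 2 h RT; fluorescence.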
Tags tell the direction and shape of the fitted curve.

Compound	activity change, negative = inhibition	Potency
O=CC1CC=CCC1 (stereo unspecified)	inconclusive: -7.96%	
Cc1ccc(O)c([N+](=O)[O-])c1		inactive
CC1(C)CC(N)CC(C)(C)N1		inactive

Test system: not listed separately
Assay: qHTS assay to identify small molecule agonists of the farnesoid-X-receptor (FXR) signaling pathway - cell viability counter screen (AID 743218); also: nearly all actives have a fitted effect of over 45% in size; also: potency is read from the fitted curve at half-maximal effect
Conditions: FXR-bla HEK293T viability, CellTiter-Glo luminescence, 16 h; viability change, negative = cytotoxic: at 62.6 µM (top of the series) unless noted
How it was run: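 HEK 293T FXR-bla cells; 5 h pre-incubation, 16 h compound exposure at 37 C; LiveBLAzer substrate 2 h RT, then CellTiter-Glo 30 min RT, luminescence.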

Compound	Potency
NCC[C@H](O)C(=O)N[C@@H]1C[C@H](N)[C@@H](O[C@H]2O[C@H](CN)[C@@H](O)[C@H](O)[C@H]2O)[C@H](O)[C@H]1O[C@H]1O[C@H](CO)[C@@H](O)[C@H](N)[C@H]1O	inconclusive: 0.106 µM [rising, partial curve, poor fit]
O=C(O)/C=C/c1ccccc1	inactive
CN1[C@@H]2CC[C@H]1CC(OC(=O)C(O)c1ccccc1)C2 (stereo partly specified)	inactive
CC(C)(C)c1nnc(NS(=O)(=O)c2ccc(N)cc2)s1	inactive

Target: Vitamin D3 receptor (Homo sapiens) (UniProt P11473)
Chain of UniProt P11473 (P11473 whole entry, looked up): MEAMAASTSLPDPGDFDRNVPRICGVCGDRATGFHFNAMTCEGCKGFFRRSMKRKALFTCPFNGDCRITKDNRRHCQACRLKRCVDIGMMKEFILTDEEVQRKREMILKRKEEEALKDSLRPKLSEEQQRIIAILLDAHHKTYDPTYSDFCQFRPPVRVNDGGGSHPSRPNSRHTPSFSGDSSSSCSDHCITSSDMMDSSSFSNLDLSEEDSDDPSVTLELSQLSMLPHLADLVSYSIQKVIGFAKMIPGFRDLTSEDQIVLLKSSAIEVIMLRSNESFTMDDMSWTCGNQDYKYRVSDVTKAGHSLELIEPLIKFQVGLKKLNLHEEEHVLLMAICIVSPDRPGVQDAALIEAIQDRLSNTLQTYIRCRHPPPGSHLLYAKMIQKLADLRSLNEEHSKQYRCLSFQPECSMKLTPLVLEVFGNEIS
Assay: qHTS assay to identify small molecule agonists of the vitamin D receptor (VDR) signaling pathway (AID 743222; calls by dose curve)
Conditions: HEK293T VDR-UAS-bla, beta-lactamase FRET ratio, 16 h; activation: at 63.5 µM (top of the series) unless noted
How it was run: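 VDR-bla cells, 2,000/well; 4 h preincubation 37C; cpd (DMSO) 16 h; LiveBLAzer B/G substrate 2 h RT; fluorescence intensity read.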

Compound	Potency	activation
CC1(C)CC(N)CC(C)(C)N1	inactive	
Clc1ccc2c(c1)Nc1ccccc1S2		inconclusive: 0.687%
C=CC(C)(O)CC/C=C(\C)CC (stereo unspecified)	inactive	

Target: Vitamin D3 receptor (Homo sapiens) (UniProt P11473)
Assay: qHTS assay to identify small molecule antagonists of the vitamin D receptor (VDR) signaling pathway (AID 743223; active = well fitted inhibition curve with a large enough effect in the signal ratio in the repeat runs, not every such curve was filed as active; inconclusive = weak or mixed curves, or effect the other way; inactive = no such curve, though single readings can be large or run the other way; the % refers to the signal ratio)
Conditions: VDR-UAS-bla HEK293T, beta-lactamase FRET ratio, 16 h; activity change, negative = inhibition: at 61 µM (top of the series) unless noted
How it was run: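 Antagonist mode: compound added to VDR-bla cells alongside agonist 1alpha,25-dihydroxyvitamin D3 (3 nM final), incubation 16 h at 37C. Read-out is LiveBLAzer FRET fluorescence, 2 h at room temperature.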

Compound	Potency	activity change, negative = inhibition
NCc1ccccc1Sc1ccccc1CO	inactive	
CCCCCCCCCOS(=O)(=O)O		inconclusive: 17.3%
CN(C)CCc1c[nH]c2ccc(CS(=O)(=O)N3CCCC3)cc12	inactive	
CC(C)OC(=O)C(C(=O)OC(C)C)=C1SC=CS1	inactive	
O=CC1CC=CCC1 (stereo unspecified)	inactive	
CN1[C@@H]2CC[C@H]1CC(OC(=O)C(O)c1ccccc1)C2 (stereo partly specified)	inactive	
O=Cc1cc2ccccc2o1	inactive	
CC1=C(C/C=C(\C)CCC[C@H](C)CCC[C@H](C)CCCC(C)C)C(=O)c2ccccc2C1=O	inactive	
COC(=O)c1ccc(C=O)cc1	inactive	
Cc1ccc(O)c(C(=O)c2ccccc2)c1		inconclusive: -31.2% [at 78.8 µM]
C[Si]1(C)O[Si](C)(C)O[Si](C)(C)O[Si](C)(C)O1		inconclusive: -26.8%
CC1(C)CC(N)CC(C)(C)N1		inconclusive: -0.343%
CC(C)(C)c1nnc(NS(=O)(=O)c2ccc(N)cc2)s1		inconclusive: -14.1%
Clc1ccc2c(c1)Nc1ccccc1S2	inactive	
Nc1ccc(C(=O)N2CC3CC(CN(Cc4ccccc4)C3)C2)cc1		inconclusive: 18.6%

Test system: not listed separately
Assay: qHTS assay to identify small molecule antagonists of the vitamin D receptor (VDR) signaling pathway - cell viability counter screen (AID 743225); also: nearly all actives have a fitted effect of over 50% in size; also: potency is read from the fitted curve at half-maximal effect
Conditions: VDR-bla HEK293T viability, CellTiter-Glo luminescence, 16 h; viability change, negative = cytotoxic: at 61 µM (top of the series) unless noted
How it was run: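 Cytotoxicity counter screen read by CellTiter-Glo luminescence (30 min, room temperature) in the same wells as the VDR-bla antagonist readout. HEK 293T VDR-UAS-bla cells had 16 h at 37C with compound and 3 nM (final) 1-alpha,25-dihydroxyvitamin D3, then 2 h with FRET substrate.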

Compound	Potency
NCc1ccccc1Sc1ccccc1CO	inactive
CN(C)CCc1c[nH]c2ccc(CS(=O)(=O)N3CCCC3)cc12	inactive
O=C(O)/C=C/c1ccccc1	inactive
CC/C=C\CC/C=C/CO	inactive
Cc1ccc(O)c(C(=O)c2ccccc2)c1	inconclusive: 27.8 µM [cytotoxic, partial curve, poor fit]
CC(C)(C)c1nnc(NS(=O)(=O)c2ccc(N)cc2)s1	inactive
